# Data as given in publication PMC4336329 (PLoS ONE, 2015).
# Out of some 310,000 compounds screened, about 2,200 (0.71%) showed an effect of 50% or more. Effects have a minus sign here. Some of the results follow. Where a SMILES comes first, the peptide text is derived from it. The star is where a group is joined. Boc = CC(C)(C)OC(=O)*
# Molecular target: human ether-à-go-go-related gene (hERG) potassium channel (human, UniProt Q12809)
# Experiment: primary screen, population patch clamp on CHO cells stably expressing hERG
# human ether-à-go-go-related gene (hERG) potassium channel, sequence (Q12809 whole entry, looked up): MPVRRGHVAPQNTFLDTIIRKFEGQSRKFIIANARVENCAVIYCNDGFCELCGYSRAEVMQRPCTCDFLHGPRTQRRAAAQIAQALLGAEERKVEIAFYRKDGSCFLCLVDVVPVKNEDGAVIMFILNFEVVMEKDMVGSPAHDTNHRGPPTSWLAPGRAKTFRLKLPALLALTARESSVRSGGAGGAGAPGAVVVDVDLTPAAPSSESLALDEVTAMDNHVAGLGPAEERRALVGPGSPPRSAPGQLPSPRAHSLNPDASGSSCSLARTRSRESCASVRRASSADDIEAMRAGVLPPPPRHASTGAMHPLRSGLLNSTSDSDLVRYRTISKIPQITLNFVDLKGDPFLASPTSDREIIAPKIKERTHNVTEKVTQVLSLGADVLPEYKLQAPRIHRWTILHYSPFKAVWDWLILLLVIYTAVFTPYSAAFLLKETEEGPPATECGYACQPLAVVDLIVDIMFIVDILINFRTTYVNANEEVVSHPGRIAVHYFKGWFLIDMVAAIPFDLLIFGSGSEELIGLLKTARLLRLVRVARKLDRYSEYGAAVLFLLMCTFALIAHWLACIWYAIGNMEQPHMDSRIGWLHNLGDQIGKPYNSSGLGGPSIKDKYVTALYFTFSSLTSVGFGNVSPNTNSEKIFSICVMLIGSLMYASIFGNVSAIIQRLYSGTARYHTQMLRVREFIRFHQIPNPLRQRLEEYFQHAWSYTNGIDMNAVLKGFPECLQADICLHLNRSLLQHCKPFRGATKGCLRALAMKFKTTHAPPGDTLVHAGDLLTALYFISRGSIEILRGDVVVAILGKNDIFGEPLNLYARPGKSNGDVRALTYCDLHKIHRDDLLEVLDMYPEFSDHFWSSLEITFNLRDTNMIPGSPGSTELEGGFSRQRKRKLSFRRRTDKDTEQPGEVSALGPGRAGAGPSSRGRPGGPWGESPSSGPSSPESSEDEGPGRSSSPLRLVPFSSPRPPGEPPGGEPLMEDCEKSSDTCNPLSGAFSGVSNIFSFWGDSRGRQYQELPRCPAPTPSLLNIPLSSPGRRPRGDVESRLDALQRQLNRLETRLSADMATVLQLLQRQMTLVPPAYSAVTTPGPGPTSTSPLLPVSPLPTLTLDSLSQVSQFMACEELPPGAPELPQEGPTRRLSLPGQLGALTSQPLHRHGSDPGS
row,SMILES,"hERG current change (%, negative = inhibition) at 1uM [%]"
1,COc1ccccc1NC(=O)c1cc(C(=O)Nc2ccccc2OC)cc(N2C(=O)CCC2=O)c1,16.7
2,CC(NC(=O)COc1ccc(N(C)S(=O)(=O)c2ccccc2)cc1)c1ccccc1 (stereo not shown),8.78
3,Cc1ccc(C(C)NC(=O)/C(C#N)=C\c2c(C)[nH]c3ccccc23)cc1 (stereo not shown),5.31
4,CCN(CC)Cc1cc(C(=O)O)c(-c2ccccc2)o1.Cl,8.31
5,O=C(O)c1ccc(NS(=O)(=O)c2ccc(C(=O)Nc3ccccc3)cc2)cc1,6.86
6,Cc1cc(C)cc(N2CC(C(=O)NC3CCCCC3)CC2=O)c1 (stereo not shown),13.2
7,COC(=O)c1cc(OC)c(OC)cc1NC(=S)N1CCN(C)CC1,11.4
8,COc1ccc(/C=N/NC(=O)c2cccnc2)c(C(=O)O)c1OC,15.1
9,O=c1ncn(-c2cccc(F)c2)c2ncccc12,16.9
10,Cn1nc([N+](=O)[O-])nc1Sc1ccc(C(C)(C)C)cc1,7.21
11,CC(C)(C)c1ccc(C(=O)Nc2ccc(F)cc2)s1,10.4
12,COc1cc2c(cc1OC)CN(c1nc(-c3cccnc3)nc3ccccc13)CC2,9.34
13,CN(CC(=O)NCC(c1ccccc1)N1CCCC1)S(=O)(=O)c1ccc(Cl)cc1 (stereo not shown),-8.89
14,O=[N+]([O-])c1ccccc1-c1ccc(/C=N/n2cnnc2)o1,-10
15,O=C(Nc1c(F)cc(F)cc1Br)c1cccnc1,10.6
16,COc1ccc(OCCCC(=O)OC(C)C(=O)Nc2ccc(NC(C)=O)cc2)cc1 (stereo not shown),11.8
17,O=S(=O)(Nc1ncccn1)c1ccc(NC(=S)NCCc2ccc(Cl)cc2)cc1,19.3
18,COCC(C)NC(=O)CSc1nnc(-c2cccc(S(=O)(=O)N3CCCCC3)c2)o1 (stereo not shown),19.4
19,C=CCNc1nc(C(F)(F)F)nc2c1nnn2Cc1ccccc1Cl,1
20,CCc1ccc(-c2csc3ncn(Cc4ccc(C(=O)O)cc4)c(=O)c23)cc1,-0.199
21,O=C(NC1CCCCC1)N1CCc2ccccc2C1,13.4
22,CCOC(=O)C1CCCN(C(=O)c2ccc(CNS(=O)(=O)c3ccc(C)cc3)cc2)C1 (stereo not shown),7.51
23,O=C(CCNC(=O)N1CCn2c1nc1ccccc12)NCc1ccc(F)cc1,5.38
24,CN1C(=O)CC(c2ccccc2)Nc2ccccc21.Cl (stereo not shown),9.48
25,CCOC(=O)C1C(=O)OC2(CCCCC2)C1C(=O)OCC (stereo not shown),7.82
26,CCc1nc(-c2cc3ccc(C)cc3[nH]c2=O)no1,-12.5
27,CCOc1ccccc1N1C(=O)c2cccnc2C1=O,16.4
28,NS(=O)(=O)c1ccc(CNc2nc(-c3cccnc3)nc3ccccc23)cc1,15.8

row,SMILES,"hERG current change (%, negative = inhibition) at 1uM [%]"
1,COc1ccc(/C=C/C(=O)Nc2cccc(C(C)=O)c2)cc1,-2.4
2,COc1cccc2cc(C(=O)C3=C(O)C(=O)N(CCN4CCOCC4)C3c3cccs3)oc12 (stereo not shown),12.9
3,CCCCOc1nc2ccccc2nc1NS(=O)(=O)c1ccc(F)cc1,-3.17
4,CC(C)OC(=O)CSc1nc2cccnc2n1C1CCCCC1,8.26
5,COc1cc(/C=N/NC(=O)Nc2ccccc2)ccc1OCCOc1ccccc1C,8.66
6,COc1ccc(-n2cnc3ccccc3c2=O)c([N+](=O)[O-])c1,14.6
7,O=C(COC(=O)/C=C/c1cccc(F)c1)Nc1ccccc1-c1ccccc1,12.2
8,COc1ccc(CN2C(=O)c3cccnc3C2=O)cc1S(=O)(=O)NC1CCCCC1C (stereo not shown),6.2
9,Cn1c(=O)[nH]c(=O)c2c1nc(N1CCCCCC1)n2CC(N)=O,14.9
10,O=C(COC(=O)Cc1ccccc1)NNC(=O)c1ccc([N+](=O)[O-])cc1,7.76
11,Cc1cccc(C)c1N(CC(=O)N(C)Cc1ccccc1)S(C)(=O)=O,5.81
12,O=C1CC(N(C(=O)c2ccco2)c2ccc(F)cc2)C(=O)N1c1ccc(F)cc1 (stereo not shown),4.37
13,Cc1ccc(C(=O)N2NC(c3ccccc3F)C3C(=O)N(c4cccc(C)c4)C(=O)C32)cc1 (stereo not shown),8.55
14,CCC(C)C(NC(=O)OC(C)(C)C)C(=O)NC(Cc1ccccc1)C(=O)OC (stereo not drawn) (Boc-Ile-Phe-OMe; configuration not given here),3.37
15,CCCCNC(=O)C1COc2ccccc2O1 (stereo not shown),14.8
16,CCOC(=O)C1CCN(Cc2cnc(Oc3ccc(OC)cc3)s2)CC1,-5.56
17,CCOC(=O)CC1C(=O)NCCN1C1CCCC1 (stereo not shown),12.1
18,NC(=O)C1(N2CCCCC2)CCN(C(=S)Nc2ccccc2)CC1,9.1
19,COc1ccc(OC(C)C(=O)NCC2CCCO2)cc1 (stereo not shown),14.4
20,CCCCc1ccc(NC(=S)Nc2ccc(Cl)c(S(=O)(=O)N(C)C)c2)cc1,18.2
21,C=CCNC(=S)N1CCN(CCN=CC2=C(O)CC(c3ccc(Cl)cc3)CC2=O)CC1 (stereo not shown),-15.7
22,O=C1OCc2ccc(NS(=O)(=O)c3ccc(C(F)(F)F)cc3)cc21,12.4
23,C=C(C)Cn1c(C2CC(=O)N(c3ccccc3F)C2)nc2ccccc21 (stereo not shown),3.1
24,O=S(=O)(/N=C(/Nc1ccc(F)c(F)c1F)c1ccccc1)c1ccccc1,7.72
25,CC(C)CNC(=O)COC(=O)c1cccc(S(=O)(=O)NCC(F)(F)F)c1,13
26,CCOc1ccc(S(=O)(=O)Nc2cccc(C(=O)N(C)CC(=O)Nc3cccc(OC)c3)c2)cc1,-0.936
27,Cn1c(C(O)c2ccc(Cl)cc2)nc(Cl)c1Cl (stereo not shown),13.6
